The values that follow come from the RNAGym collection of RNA variant scans (doi:10.1073/pnas.2313332121).

First the molecules themselves.
B1: TPR 5TU (parent)
chain: GGAUCUUCUCGAUCUAACAAAAAAGACAAAUCUGCCACAAAGCUUGAGAGCAUCUUCGGAUGCAGAGGCGGCAGCCUUCGGUGGCGCGAUAGCGCCAACGUUCUCAACUAUGACACGCAAAACGCGUGCUCCGUUGAAUGGAGUUUAUCAUG

Variants at the floor of the assay are shown more often than the library holds them. Where only a bound is given, the exact number is not on record here.

In the data set the parent is B1. The experiment in a line: polymerase ribozyme fitness, log enrichment relative to wild type (log ratio); higher = more active; in vitro selection for triplet polymerase activity. In outline:
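Fitness measures genotype enrichment against wild-type enrichment on a logarithmic scale, with inverse-variance-weighted averaging of replicates. The logarithm is base 2, and genotypes were kept only with ≥10 input reads and ≥1 read per output in Illumina sequencing. The sequenced libraries came from one triplicate in vitro selection round, including frozen incubation at −7 °C, of PCR-built, transcribed mutant libraries of each subunit of a heterodimeric triplet polymerase ribozyme.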
With C38U U53A A106G A107C C125A, the “polymerase ribozyme fitness (log ratio)” value was no more than -4.2.

In the case of A37U G42A C85A A138G, the “polymerase ribozyme fitness (log ratio)” value is no more than -4.2.

C38A C76A G84A A120G G140A A150U: the “polymerase ribozyme fitness (log ratio)” value is no more than -4.2.

In the case of C36U A107C A120U A122U G126A, the “polymerase ribozyme fitness (log ratio)” value was no more than -4.2.

Turning to A39C A60C G86U, the “polymerase ribozyme fitness (log ratio)” value was no more than -4.2.

For the variant C36U A49U C96U C131A, the “polymerase ribozyme fitness (log ratio)” value was no more than -4.2.

For the variant A37U G88U G92C A122G G133U G143A A150U, the “polymerase ribozyme fitness (log ratio)” value was -4.06.

Consider A37U A40C G67C U90G C96U A142G, for which the “polymerase ribozyme fitness (log ratio)” value is no more than -4.2.

On to A39C C93A, for which the “polymerase ribozyme fitness (log ratio)” value was no more than -4.2.

For A37G C51U A66U G83A U151G, the “polymerase ribozyme fitness (log ratio)” value was no more than -4.2.

Regarding A37C C79G, the “polymerase ribozyme fitness (log ratio)” value is no more than -4.2.

As to A39C A47C G62A C85U A98U U134A, the “polymerase ribozyme fitness (log ratio)” value was no more than -4.2.

Turning to A39G U77G, the “polymerase ribozyme fitness (log ratio)” value is no more than -4.2.

With A39G G42A, the “polymerase ribozyme fitness (log ratio)” value was -3.64.

Take A39G A147U: the “polymerase ribozyme fitness (log ratio)” value is -0.693.

A39G C85U C103A: the “polymerase ribozyme fitness (log ratio)” value is no more than -4.2.

In the case of A39G G83U A113U C116U C125U G143A, the “polymerase ribozyme fitness (log ratio)” value was no more than -4.2.

With C38A G68A G74A C85G A107U U134G G143A, the “polymerase ribozyme fitness (log ratio)” value was no more than -4.2.

As to A39G A73G C76A C87U C103U U146A, the “polymerase ribozyme fitness (log ratio)” value is no more than -4.2.

As for C36U G59A U82G A97U, the “polymerase ribozyme fitness (log ratio)” value is -1.3.

As for C38U A60C C87U A115C C123A G141U G143U, the “polymerase ribozyme fitness (log ratio)” value is no more than -4.2.

Take C38G C63U G65A G67U C85G G88A C105G G117C: the “polymerase ribozyme fitness (log ratio)” value is no more than -4.2.

Take C36U U77G A98U U134A: the “polymerase ribozyme fitness (log ratio)” value is no more than -4.2.

Turning to A39U A47U U82G C114U U144C, the “polymerase ribozyme fitness (log ratio)” value is no more than -4.2.

Turning to A37G U44A A52C G86U C95U U101G U144C, the “polymerase ribozyme fitness (log ratio)” value is no more than -4.2.

A39G A40C C75G: the “polymerase ribozyme fitness (log ratio)” value is no more than -4.2.

Consider A37C C38G C85U, for which the “polymerase ribozyme fitness (log ratio)” value is -1.28.

For the variant C38A U55A C79U G83A C132G, the “polymerase ribozyme fitness (log ratio)” value was no more than -4.2.

For the variant A37C U144A, the “polymerase ribozyme fitness (log ratio)” value was -0.958.

As for A39C C87G, the “polymerase ribozyme fitness (log ratio)” value was no more than -4.2.

For the variant A37C A41C A89G A110U, the “polymerase ribozyme fitness (log ratio)” value was no more than -4.2.

As to C38U U55G G83U U135C, the “polymerase ribozyme fitness (log ratio)” value was -1.98.

As to A37G U53A U134G, the “polymerase ribozyme fitness (log ratio)” value was -3.7.

For A37C G48A C79G A115G, the “polymerase ribozyme fitness (log ratio)” value was no more than -4.2.

For C38A U56G G136C U146C, the “polymerase ribozyme fitness (log ratio)” value was -3.92.

Consider A39C U53A G74C, for which the “polymerase ribozyme fitness (log ratio)” value was no more than -4.2.

On to C38U C76A G84C U134A U146C, for which the “polymerase ribozyme fitness (log ratio)” value was no more than -4.2.

As for A39C U45A A49C A52U G71U C93U U101C C116A G140U, the “polymerase ribozyme fitness (log ratio)” value was no more than -4.2.

As to C38U C116G U148A, the “polymerase ribozyme fitness (log ratio)” value is -3.89.

On to A39C A41C A115G G124A, for which the “polymerase ribozyme fitness (log ratio)” value was -3.47.

On to A37C U53C C54U G83A G94A, for which the “polymerase ribozyme fitness (log ratio)” value is no more than -4.2.

A37C A40C U77G: the “polymerase ribozyme fitness (log ratio)” value was no more than -4.2.

Regarding A39U A64G G86A A89G U135A, the “polymerase ribozyme fitness (log ratio)” value was no more than -4.2.

A39C U145C: the “polymerase ribozyme fitness (log ratio)” value is -1.66.

Regarding C36U C76U C85G, the “polymerase ribozyme fitness (log ratio)” value was -2.42.

As for A37U C54A C57A C93U, the “polymerase ribozyme fitness (log ratio)” value is -3.28.

Consider C36U A73G U82G C125A A138U, for which the “polymerase ribozyme fitness (log ratio)” value was no more than -4.2.

As for C38U G84U, the “polymerase ribozyme fitness (log ratio)” value is -2.42.

C38U G58A G59C U61A G80C A107G: the “polymerase ribozyme fitness (log ratio)” value is no more than -4.2.

As for A39U A52C A150C, the “polymerase ribozyme fitness (log ratio)” value is no more than -4.2.

Regarding A37U A41C A47C G59U U90A C118A, the “polymerase ribozyme fitness (log ratio)” value is no more than -4.2.

Regarding A37C A60C G67C C76G, the “polymerase ribozyme fitness (log ratio)” value was -3.82.

Consider C38U C85U C105U C123G, for which the “polymerase ribozyme fitness (log ratio)” value amounted to 0.319.

As for A39C U90C, the “polymerase ribozyme fitness (log ratio)” value is no more than -4.2.

Consider A39G A110G, for which the “polymerase ribozyme fitness (log ratio)” value is no more than -4.2.

In the case of A37C A60U C76U U82C C95A C132G, the “polymerase ribozyme fitness (log ratio)” value was no more than -4.2.

C38A C75U C79G G81C G94A C103A C132G: the “polymerase ribozyme fitness (log ratio)” value was no more than -4.2.

On to A39U A52G C72A U82A G94A C123U, for which the “polymerase ribozyme fitness (log ratio)” value was no more than -4.2.

Consider C38U U44A C54U G83C C96U C108G G143U, for which the “polymerase ribozyme fitness (log ratio)” value was no more than -4.2.

As for C38A C43A U55A C87U G117A, the “polymerase ribozyme fitness (log ratio)” value is no more than -4.2.

Consider C38U G88A A147U C149U U151G, for which the “polymerase ribozyme fitness (log ratio)” value was no more than -4.2.

Consider C36U A39U, for which the “polymerase ribozyme fitness (log ratio)” value was -2.71.

On to C38G C54G C76G A107U U146G, for which the “polymerase ribozyme fitness (log ratio)” value was no more than -4.2.

As for C38U U82G C95G A98G U127G C131G, the “polymerase ribozyme fitness (log ratio)” value is no more than -4.2.

With C38A U44A G86A G92A C132U G136U A138G, the “polymerase ribozyme fitness (log ratio)” value is no more than -4.2.

Consider A37U A73G C75A C85U C87U, for which the “polymerase ribozyme fitness (log ratio)” value was no more than -4.2.

As to A37U U56A U77A A98G C103A A142C, the “polymerase ribozyme fitness (log ratio)” value was no more than -4.2.

For the variant A37C G48A C85U C96A, the “polymerase ribozyme fitness (log ratio)” value is no more than -4.2.

As for A37C A39U C76U G80C G92C, the “polymerase ribozyme fitness (log ratio)” value is no more than -4.2.

With C38U G74C U82C G86A C93G, the “polymerase ribozyme fitness (log ratio)” value is no more than -4.2.

Consider C36U C75G U90A, for which the “polymerase ribozyme fitness (log ratio)” value is no more than -4.2.

As to A39C U61A U101G A110G, the “polymerase ribozyme fitness (log ratio)” value is no more than -4.2.

Take C38U U45G U61C U145A: the “polymerase ribozyme fitness (log ratio)” value was no more than -4.2.

For C38A U53A C57G C79U G86C U134A, the “polymerase ribozyme fitness (log ratio)” value was no more than -4.2.

With A39G A73G U109A A119U, the “polymerase ribozyme fitness (log ratio)” value is -3.91.

For the variant A39G G59A C96G U146C, the “polymerase ribozyme fitness (log ratio)” value is -3.67.

In the case of C38G U56A G94A A121G, the “polymerase ribozyme fitness (log ratio)” value was -1.64.

On to C36G U90G C118U, for which the “polymerase ribozyme fitness (log ratio)” value was no more than -4.2.

C36U G71A G94A: the “polymerase ribozyme fitness (log ratio)” value is no more than -4.2.

Consider A39G G42C A47C G81A G133U G136A, for which the “polymerase ribozyme fitness (log ratio)” value was no more than -4.2.

As to A37G A52G U55A U56A C85U C103U U145A, the “polymerase ribozyme fitness (log ratio)” value is -3.09.

In the case of A37C A40C G48C G74A G94A G126C G133A G136A A150U, the “polymerase ribozyme fitness (log ratio)” value is no more than -4.2.

On to C38A C43G C105G C116U, for which the “polymerase ribozyme fitness (log ratio)” value is no more than -4.2.
